# From patent publication US20220340685A1, “COMBINATION THERAPY WITH ENTPD2 AND CD73 ANTIBODIES” (Novartis AG, priority 2019, published 2022)
# T1: human ENTPD2 (Homo sapiens, UniProt Q9Y5L3)
# T1 construct: residues 29-462 of human or cyno ENTPD2; GP67 signal peptide (N); made in house; host or cells: High Five (Trichoplusia ni) insect cells, baculovirus
# T1 sequence (Q9Y5L3 29-462): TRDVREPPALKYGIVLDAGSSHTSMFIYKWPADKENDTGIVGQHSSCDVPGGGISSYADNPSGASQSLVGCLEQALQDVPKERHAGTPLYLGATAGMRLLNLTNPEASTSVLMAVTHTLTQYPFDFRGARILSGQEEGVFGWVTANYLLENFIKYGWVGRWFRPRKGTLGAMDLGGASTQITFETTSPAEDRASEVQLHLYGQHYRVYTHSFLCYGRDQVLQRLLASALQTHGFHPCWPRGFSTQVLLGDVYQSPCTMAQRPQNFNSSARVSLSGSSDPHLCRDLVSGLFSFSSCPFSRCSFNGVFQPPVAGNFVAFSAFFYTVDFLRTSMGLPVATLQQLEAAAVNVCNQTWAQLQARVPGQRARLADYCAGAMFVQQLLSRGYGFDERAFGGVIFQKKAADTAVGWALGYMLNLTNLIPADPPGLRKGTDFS
# T2: mouse ENTPD2 (Mus musculus, UniProt O55026)
# T2 construct: residues 29-462 of mouse or rat ENTPD2 (the extracellular domain); His6; mouse IgK signal peptide (N); made in house; host or cells: FreeStyle 293-F cells (transient)
# T2 sequence (O55026 29-462): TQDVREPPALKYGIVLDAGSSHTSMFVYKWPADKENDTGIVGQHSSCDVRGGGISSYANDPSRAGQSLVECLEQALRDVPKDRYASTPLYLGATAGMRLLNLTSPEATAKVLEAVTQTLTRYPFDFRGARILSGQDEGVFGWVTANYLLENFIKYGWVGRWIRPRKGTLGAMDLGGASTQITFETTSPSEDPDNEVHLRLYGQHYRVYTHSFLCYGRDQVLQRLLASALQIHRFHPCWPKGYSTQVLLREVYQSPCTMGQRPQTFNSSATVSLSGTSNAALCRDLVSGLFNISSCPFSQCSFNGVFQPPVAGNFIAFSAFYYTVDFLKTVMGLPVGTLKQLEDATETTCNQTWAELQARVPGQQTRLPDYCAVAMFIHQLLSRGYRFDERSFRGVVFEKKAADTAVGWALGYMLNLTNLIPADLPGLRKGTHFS
# B1: mAb8: anti-human ENTPD2 antibody; probably heavy chain SEQ ID NO: 93, light chain SEQ ID NO: 104 (antibody)
# heavy: QVQLQQSGPGLVKPSQTLSLTCAISGDSVSSSSAAWNWIRQSPSRGLEWLGRIYYRSKWYNDYAVSVKSRITINPDTSKNQFSLQLNSVTPEDTAVYYCARGSYVTSSYEGFDYWGQGTLVTVSSASTKGPSVFPLAPSSKSTSGGTAALGCLVKDYFPEPVTVSWNSGALTSGVHTFPAVLQSSGLYSLSSVVTVPSSSLGTQTYICNVNHKPSNTKVDKRV[left out - human IgG1 Fc]
# light: SYELTQPLSVSVALGQTARITCSGDNLPEKYAYWYQQKPGQAPVLVIYDDNKRPSGIPERFSGSNSGNTATLTISRAQAGDEADYYCQSYGKWGWTWVFGGGTKLTVLGQPKAAPSVTLFPPSSEELQANKATLVCLISDFYPGAVTVAWKADSSPVKAGVETTTPSKQSNNKYAASSYLSLTPEQWKSHRSYSCQVTHEGSTVEKTVAPTECS
# B2: mAb9: anti-human ENTPD2 antibody; probably heavy chain SEQ ID NO: 117, light chain SEQ ID NO: 127 (antibody)
# heavy: QVQLVQSGAEVKKPGSSVKVSCKASGGTFDSYAVSWVRQAPGQGLEWMGRIVPWLGHTQYAQKFQGRVTITADESTSTAYMELSSLRSEDTAVYYCARESPGYRYSFDVWDQGTLVTVSSASTKGPSVFPLAPSSKSTSGGTAALGCLVKDYFPEPVTVSWNSGALTSGVHTFPAVLQSSGLYSLSSVVTVPSSSLGTQTYICNVNHKPSNTKVDKRV[left out - human IgG1 Fc]
# light: SYELTQPLSVSVALGQTARITCSGDAIGEKYVYWYQQKPGQAPVLVIYDDNNRPSGIPERFSGSNSGNTATLTISRAQAGDEADYYCASYDLQQARWVFGGGTKLTVLGQPKAAPSVTLFPPSSEELQANKATLVCLISDFYPGAVTVAWKADSSPVKAGVETTTPSKQSNNKYAASSYLSLTPEQWKSHRSYSCQVTHEGSTVEKTVAPTECS
# B3: mAb10: anti-human ENTPD2 antibody; probably heavy chain SEQ ID NO: 134, light chain SEQ ID NO: 127 (antibody)
# heavy: QVQLVQSGAEVKKPGSSVKVSCKASGGTFDSYAVSWVRQAPGQGLEWMGRIVPWLGFTRYAQKFQGRVTITADESTSTAYMELSSLRSEDTAVYYCARESPGYRYSFDVWDQGTLVTVSSASTKGPSVFPLAPSSKSTSGGTAALGCLVKDYFPEPVTVSWNSGALTSGVHTFPAVLQSSGLYSLSSVVTVPSSSLGTQTYICNVNHKPSNTKVDKRV[left out - human IgG1 Fc]
# light: SYELTQPLSVSVALGQTARITCSGDAIGEKYVYWYQQKPGQAPVLVIYDDNNRPSGIPERFSGSNSGNTATLTISRAQAGDEADYYCASYDLQQARWVFGGGTKLTVLGQPKAAPSVTLFPPSSEELQANKATLVCLISDFYPGAVTVAWKADSSPVKAGVETTTPSKQSNNKYAASSYLSLTPEQWKSHRSYSCQVTHEGSTVEKTVAPTECS
# B4: mAb3: humanized anti-human ENTPD2 antibody derived from mAb17; probably heavy chain SEQ ID NO: 35, light chain SEQ ID NO: 31 (antibody)
# heavy: QVQLVQSGAEVVKPGASVKISCKASGYTFTDYNMDWVKQAPGQRLEWIGDINPKYDISTYNQQFKGKATITVDTSASTAYMELSSLRSEDTAVYYCARRGFFLYYGINYYYFDVWGQGTLVTVSSASTKGPSVFPLAPSSKSTSGGTAALGCLVKDYFPEPVTVSWNSGALTSGVHTFPAVLQSSGLYSLSSVVTVPSSSLGTQTYICNVNHKPSNTKVDKRV[left out - human IgG1 Fc]
# light: EIVLTQSPATLSASPGERITLSCSASSSVSYIHWYQQKPGQAPRLLIYSTSNLASGIPARFSGSGSGTFYTLTISSVEPEDAAVYYCHQWSSYPWTFGGGTKLEIKRTVAAPSVFIFPPSDEQLKSGTASVVCLLNNFYPREAKVQWKVDNALQSGNSQESVTEQDSKDSTYSLSSTLTLSKADYEKHKVYACEVTHQGLSSPVTKSFNRGEC
# B5: mAb7: humanized anti-human ENTPD2 antibody derived from mAb17; probably heavy chain SEQ ID NO: 27, light chain SEQ ID NO: 80 (antibody)
# heavy: QVQLVQSGAEVVKPGASVKISCKASGYTFTDYNMDWVKQAPGQRLEWIGDINPKYDISTYNQQFKGKATITVDKSASTAYMELSSLRSEDTAVYYCARRGFFLYYGINYYYFDVWGQGTLVTVSSASTKGPSVFPLAPSSKSTSGGTAALGCLVKDYFPEPVTVSWNSGALTSGVHTFPAVLQSSGLYSLSSVVTVPSSSLGTQTYICNVNHKPSNTKVDKRV[left out - human IgG1 Fc]
# light: EIVLTQSPATLSASPGEEITLSCSASSSVSYIHWYQQKPGQAPRLLIYSTSNLASGIPARFSGSGSGTFYTLTISSVEPEDAAVYYCHQWSSYPWTFGGGTKLEIKRTVAAPSVFIFPPSDEQLKSGTASVVCLLNNFYPREAKVQWKVDNALQSGNSQESVTEQDSKDSTYSLSSTLTLSKADYEKHKVYACEVTHQGLSSPVTKSFNRGEC
# B6: mAb2: humanized anti-human ENTPD2 antibody derived from mAb17; probably heavy chain SEQ ID NO: 27, light chain SEQ ID NO: 31 (antibody)
# heavy: QVQLVQSGAEVVKPGASVKISCKASGYTFTDYNMDWVKQAPGQRLEWIGDINPKYDISTYNQQFKGKATITVDKSASTAYMELSSLRSEDTAVYYCARRGFFLYYGINYYYFDVWGQGTLVTVSSASTKGPSVFPLAPSSKSTSGGTAALGCLVKDYFPEPVTVSWNSGALTSGVHTFPAVLQSSGLYSLSSVVTVPSSSLGTQTYICNVNHKPSNTKVDKRV[left out - human IgG1 Fc]
# light: EIVLTQSPATLSASPGERITLSCSASSSVSYIHWYQQKPGQAPRLLIYSTSNLASGIPARFSGSGSGTFYTLTISSVEPEDAAVYYCHQWSSYPWTFGGGTKLEIKRTVAAPSVFIFPPSDEQLKSGTASVVCLLNNFYPREAKVQWKVDNALQSGNSQESVTEQDSKDSTYSLSSTLTLSKADYEKHKVYACEVTHQGLSSPVTKSFNRGEC
# Tests used:
# [1] = tested on: cynomologus (cyno) ENTPD2; assay: Biacore SPR kinetic affinity to cyno ENTPD2 ECD; type: binding, cynomolgus monkey; conditions: 25° C.; for Cyno ENTPD2 ka: association rate; for Cyno ENTPD2 kd: dissociation rate
# Method: (§1) Biacore Screening: Affinity was measured by determining the kinetic rate constants using surface plasmon resonance (SPR) on a Biacore T200 or T100 with the T200 sensitivity upgrade instrument (Biacore, GE Healthcare). Antibodies were captured on CM5 sensor chips (Biacore, GE Healthcare) prepared with a mouse anti-human IgG Fc antibody (ThermoFisher catalogue # 05-4200) amine coupled to the surface. […] ENTPD2 analytes were allowed to associate for 180 s and dissociate for up to 1800 s depending on the off-rate of the antibody at a flow rate of 30 μL/min. The running buffer was PBS pH 7.2 (prepared from a Corning 10X stock, cat# 46-013-CM) +0.05% Tween 20. Regeneration was accomplished with 30 s injections of 3 or 4 M MgCl2 to remove all the captured antibody and remaining complex from the surface, after which fresh antibody was captured. The raw data were analyzed using Biacore T200 Evaluation Software version 1.0 and fit to a 1:1 binding model, with all parameters set to fit globally except for RI, which was set to fit locally.
# human ENTPD2 = target: T1, human ENTPD2; assay: Biacore SPR kinetic affinity to human ENTPD2 ECD; type: binding; conditions: 25° C.; for Human ENTPD2 ka: association rate; for Human ENTPD2 kd: dissociation rate
# Method: as §1
# mouse ENTPD2 = target: T2, mouse ENTPD2; assay: Antibody specificity: binding to mouse ENTPD2; conditions: for Mouse ENTPD2 BIACore KD (nM): Biacore SPR
# Method: ELISA screening on directly coated antigen: Maxisorp™ 384-well plates (Thermo Nunc) were coated with 2 μg/ml of recombinant ENTPD2 diluted in PBS. After blocking with 2% BSA (bovine serum albumin) in PBS for 1 hr at room temperature, washing plates 3× with TBST (0.05% Tween 20 in TBS, Sigma Cat# T9039), primary antibodies in TBST and 2% BSA were added in a serial dilution and incubated for 1 hr at room temperature. Plates were washed again and bound antibodies were detected by incubation with anti-hFc gamma conjugated to horseradish peroxidase (HRP; Jackson ImmunoResearch, Cat#115-035-098, diluted 1:5000 in 1× TBST+2% BSA) for 1 hr at room temperature followed by washing with TBST and afterwards addition of SureBlue Peroxidase substrate (KPL, #52-00-03) substrate. After 15 min, absorbance at 650 nm was recorded and analyzed in GraphPad Prism6.
# as §1
# Antibody specificity for mAb1-mAb10 was confirmed. […] Antibodies mAb8, mAb9, and mAb10 show weak affinity to mouse ENTPD2. None of the selected antibodies bind to rat ENTPD2.
Molecule,Cyno ENTPD2 ka [1],Cyno ENTPD2 kd [1],Human ENTPD2 ka (human ENTPD2),Human ENTPD2 kd (human ENTPD2),binding / cross-reactivity to mouse ENTPD2 (mouse ENTPD2),Mouse ENTPD2 BIACore KD (nM) (mouse ENTPD2)
B1,300000 M⁻¹ s⁻¹,0.024 s⁻¹,290000 M⁻¹ s⁻¹,0.00094 s⁻¹,weak affinity,Weak
B2,990000 M⁻¹ s⁻¹,0.021 s⁻¹,380000 M⁻¹ s⁻¹,0.0003 s⁻¹,weak affinity,–
B3,1.2e+06 M⁻¹ s⁻¹,0.018 s⁻¹,340000 M⁻¹ s⁻¹,0.00024 s⁻¹,weak affinity,Weak
B4,450000 M⁻¹ s⁻¹,0.00098 s⁻¹,130000 M⁻¹ s⁻¹,0.00016 s⁻¹,–,No binding
B5,1.2e+06 M⁻¹ s⁻¹,0.0012 s⁻¹,210000 M⁻¹ s⁻¹,0.00019 s⁻¹,–,No binding
B6,430000 M⁻¹ s⁻¹,0.0012 s⁻¹,110000 M⁻¹ s⁻¹,0.00018 s⁻¹,–,No binding
